Source: PMC12136788
The other results are listed elsewhere or left out.

T1: UNK ZnF1-6 (called full-length) (human, UniProt Q9C0B0 30-357)
T1 sequence: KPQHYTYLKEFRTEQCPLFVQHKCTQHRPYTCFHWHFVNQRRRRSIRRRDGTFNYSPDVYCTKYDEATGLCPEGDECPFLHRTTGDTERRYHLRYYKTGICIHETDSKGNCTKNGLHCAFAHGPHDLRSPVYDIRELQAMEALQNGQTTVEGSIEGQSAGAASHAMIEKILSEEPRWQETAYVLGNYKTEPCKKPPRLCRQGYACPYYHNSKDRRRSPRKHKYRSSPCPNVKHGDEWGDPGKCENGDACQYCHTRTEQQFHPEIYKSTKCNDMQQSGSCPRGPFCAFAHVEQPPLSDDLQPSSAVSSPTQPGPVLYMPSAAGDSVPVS

B1: chr10:73916565:73916770:+|3pUTR|ENSG00000122861|msi1|FALSE|unique (ssRNA)
RNA: GGGAGUUCUACAGUCCGACGAUCCUGGUUGUCAUUUUUGCAGUAGAGUCAUCUCCAUCAGCUGUAAGAAGAGACUGGGAAGAUAGGCUCUGCACAGAUGGAUUUGCCUGUGCCACCCACCAGGGCGAACGACAAUAGCUUUACCAACAGAGGAUUGAGCAUCA
B2: ENSG00000198589:be:win_4451|CDS|ENSG00000198589|bound_else_gene|NA|bound_elsewhere_windowed (ssRNA)
RNA: GGGAGUUCUACAGUCCGACGAUCCUGCAGCGAAGAGCCCAGUGGACAUUGUGACUGGCGGUAUAUCUCCAGUAAGAGAUCUUGACAGGCUUCUACAGGACAUGGAUAUUAAUCGGCUUAGGGCAGUUGUUUUCAGAGACAUAGCAACAGAGGAUUGAGCAUCA
B3: ENSG00000136451:be:win_2451|3pUTR|ENSG00000136451|bound_else_gene|NA|bound_elsewhere_windowed (ssRNA)
RNA: GGGAGUUCUACAGUCCGACGAUCUUUAAAUUGGAAGACGCUGGAGGCACUGGGAUGUGAUAUGCCCCUCUCUCUCCCAAUCAGAGCCUGUUGAUAUUACAACAGGGACAGAUGUGUUAGUUGCUCACUAGAGUUUAUGUCUUACAACAGAGGAUUGAGCAUCA
B4: chr5:173956200:173956301:+|3pUTR|ENSG00000113742|unk|total|mutant (ssRNA)
RNA: GGGAGUUCUACAGUCCGACGAUCCCCCUUCCUCAACCUCUUCACGCUGGCAUGUCCUUUUGCCGCAGUCUGUAACUUAACUACCGUAUAAUGAAAAGAAUGACCUAUAAUACCGGUGUUUUGCCGAUUCUUGUGUCACUGCAACAACAGAGGAUUGAGCAUCA
B5: chr1:17067390:17067767:-|3pUTR|ENSG00000117115|msi1|total|mutant (ssRNA)
RNA: GGGAGUUCUACAGUCCGACGAUCCCCAACAUGCAAAGCCCACAUUUAAAGGCCAGCCUCUGCCCCUUCAGUGAUGCGCUCUUCCGAAAUGCCAGUCCACUAUAUUCAGAAAUCCGCAGGGCACAAAACUUCCAGCAAGUCACUCAACAGAGGAUUGAGCAUCA
B6: chr1:93152962:93153063:-|3pUTR|ENSG00000117500|msi1|total|mutant (ssRNA)
RNA: GGGAGUUCUACAGUCCGACGAUCGCUGGAAUUCUUGAUGAGCAAUAAUGAUAACCAGAGAGUGAUUUCAUUUACACUCACCGCCGUAUAAAAAGAGAUACAUUUCCCUCUCCGGCCCCUGGGAGAAGAGCAGCUCCGAUUUCCCAACAGAGGAUUGAGCAUCA
B7: chr7:114979563:114979664:+|CDS|ENSG00000135272|unk|total|mutant (ssRNA)
RNA: GGGAGUUCUACAGUCCGACGAUCCCAACCUCAGCGCUUGCCUCAGCUUCAGACUUCAGCCCAGGUGCCAAGUGGUGAGGAAACCGGCAAGAUAAAGAACGGCCACACAGGUCUGAGCAAUGGAAAUGGAAUUCACCACGGGGCCAACAGAGGAUUGAGCAUCA
B8: chr12:129073877:129075059:-|CDS|ENSG00000151952|control|control|control (ssRNA)
RNA: GGGAGUUCUACAGUCCGACGAUCACCUUCACCGCCGUCUCCUCAGACGACGAGUACCCCACCAGGAACUCCAUCGUGAUGAGUAGCGAGGAUGACAUUAAGUGGGUCUGCCAGGAUCUGGACCCUGGGGACUGCAAAGAGCUGCAACAGAGGAUUGAGCAUCA
B9: chr13:108210031:108210147:-|CDS|ENSG00000174405|unk|FALSE|unique (ssRNA)
RNA: GGGAGUUCUACAGUCCGACGAUCAUGGUUAAUAAUAAAAAGCUAGGGCAUGAGACUCUGAGAAAGAGGUAUGAGAUUCUUAGUAGUAUUUUUACACCAAUUCCAGGUAGAAUAGAAAUAGUGCAGAAAACACAAGCUCAUACUCAACAGAGGAUUGAGCAUCA
B10: chr5:40972473:40972581:+|CDS|ENSG00000112936|unk|FALSE|unique (ssRNA)
RNA: GGGAGUUCUACAGUCCGACGAUCAAAACCUUUCUACACAGUUGGUGAGAAGGUGACUGUUUCCUGUUCAGGUGGCAUGUCCUUAGAAGGUCCUUCAGCAUUUCUCUGUGGCUCCAGCCUUAAGUGGAGUCCUGAGAUGAAGAACAACAGAGGAUUGAGCAUCA
B11: chr9:124878635:124878736:-|3pUTR|ENSG00000136935|msi1|total|mutant (ssRNA)
RNA: GGGAGUUCUACAGUCCGACGAUCCCAGCCAUUGAACUGGUCCCACACGCACCCCAGGCCCCACUCCUCGGCAGUUUCAGGUGCCGCUGUGGGGCCCGUUCCCCGGUCUGUACUCACUUCCGGGAGGCUUCACUGACCCGGCUUCAACAGAGGAUUGAGCAUCA
B12: chr2:201645282:201645383:-|CDS|ENSG00000082126|unk|FALSE|unique (ssRNA)
RNA: GGGAGUUCUACAGUCCGACGAUCUACUAUCCAUAUUUUUCUAUUUCUCCUAAAGGAUGAAGACCUACAAGAGAUGGAAAAUUUAGCCCAAAGAAUGGAAACUCAGUUUGGCCAAUUUUUUGAUCAUGUGAUUGUGAAUGACAGCAACAGAGGAUUGAGCAUCA
B13: chr17:50110931:50111032:+|3pUTR|ENSG00000005882|unk|total|mutant (ssRNA)
RNA: GGGAGUUCUACAGUCCGACGAUCUGUGCCCAGACAUGUGUGCUCAGGGUGGCUUUCUCCCCCGGACCUUCUGUGUAUACCGUCCGUUUUAUAACCCUGAAUGCCCCCACCCUUCCCCUAAGCACACAGGGGUUAAAGCUGUGUCAACAGAGGAUUGAGCAUCA
B14: chr2:216674221:216674322:-|3pUTR|ENSG00000115461|msi1|FALSE|unique (ssRNA)
RNA: GGGAGUUCUACAGUCCGACGAUCGCAUGCCCCAUCUCUCUGCACAGCUGUCCCCUAAACCCAACUCACGUUUCUGUAUGUCUUAGGCCAGUAUCCCAAACCUCUUCCACGUCACUGUUCUUUCCACCCAUUCUCCCUUUGCAUCAACAGAGGAUUGAGCAUCA
B15: chr5:111496093:111496242:-|3pUTR|ENSG00000164211|unk|total|mutant (ssRNA)
RNA: GGGAGUUCUACAGUCCGACGAUCUUUACAUGUACCGUUAAAUAUUAAAAUUCAUCUCUUGCAGUUCAAUAAAAGCUACCGUACCGAUUUUAUUUUUAAGAAGUUUAUAUAAUUCUUUUGUGAACCAAUAUGUAAAACCCGAAUCAACAGAGGAUUGAGCAUCA
B16: chr3:62294137:62294238:+|3pUTR|ENSG00000144724|msi1|total|mutant (ssRNA)
RNA: GGGAGUUCUACAGUCCGACGAUCUGAGACCCUUCCGUUAUUCUCCAUUAAUGCUUCUCCGUUUGUAAUACCAUACCUCACAGCCGGCCGAAGAAUGAAAACUUCUGCAGGUGUGUAAUUUUGAAACCCGUCCUCUAAAAAUUCCAACAGAGGAUUGAGCAUCA
B17: chr11:108173179:108173289:-|CDS|ENSG00000149308|unk|total|mutant (ssRNA)
RNA: GGGAGUUCUACAGUCCGACGAUCUGGUUCCAAGUCAUCAGAUUCCCGUGAAGUUCACAAGAGUAAAACCGAAAUUAAUGUGUCCGAACCAGUUAUGUCACAGCUAUCAAAUUGCCAAGAUAAUUCUUGUCUUCAAAGUGAAAUCAACAGAGGAUUGAGCAUCA
B18: ENSG00000084652:stop:overlap|stop_codon|ENSG00000084652|stop_codon|NA|stop_codon (ssRNA)
RNA: GGGAGUUCUACAGUCCGACGAUCCACCGAGCACAGAAGCAUCAGGCCAGACUGGGCCUCAAGAGCCCACCUCCGCCAGGGCCUAGAGAGCCUGGUGUUGGGUCAUGCUGGGAAGGGAGCGGCAGCCCAGCCAGGCCUGGCCCACAACAGAGGAUUGAGCAUCA
B19: chr6:105097214:105097376:-|3pUTR|ENSG00000112276|msi1|FALSE|unique (ssRNA)
RNA: GGGAGUUCUACAGUCCGACGAUCCAUGCCUUGGUUUCCUCUCCCUUCCCUCUUUCCAAUCCUGGUUUCCUAACCUCCUCUUGUAGUAAUUCUCAACUCAACUCAAAGUCCCAAGAAUUUGGAAUGGUAGGAUGCUGUGCGGGGCAACAGAGGAUUGAGCAUCA
B20: chr8:122953881:122953982:+|CDS|ENSG00000178764|msi1|FALSE|unique (ssRNA)
RNA: GGGAGUUCUACAGUCCGACGAUCGAGUCGAGCGUUGUGGAUUACGUGGAGGUGACGGUCGGGGAGGAGGAUGCGAUCUCAGAUAGAUCAGAUAGCUGGAGUCAGGCUGCGGCAGAAGGUGUGUCGGAACUGGCUGAAUCAGACCAACAGAGGAUUGAGCAUCA
B21: chr6:137492198:137493351:-|three_prime_utr|ENSG00000177468|control|control|control (ssRNA)
RNA: GGGAGUUCUACAGUCCGACGAUCGAGAUCUCAGACUCCACUUGACCCCCGGAGGGAAAGGACCAAAAUCAAACCGCAAUUUCUAGGUGGUAGCAAAGGGGGACUCGAACCAGAUGUCGUGUGUUUUGCAUGCAUGCUUCUUUUCAACAGAGGAUUGAGCAUCA
B22: chr22:38485951:38486139:-|CDS|ENSG00000100201|unk|FALSE|bound_elsewhere (ssRNA)
RNA: GGGAGUUCUACAGUCCGACGAUCUAGUAGCACCACCUCAACUGGGAGAAGUUCACAGAGCUCUAGCCAGCAGUUUAGUGGGAUAGGCCGGUCUGGGCAGCAGCCACAGCCACUGAUGUCACAACAGUUUGCACAGCCUCCGGGCAACAGAGGAUUGAGCAUCA

These binders were tested against T1, UNK ZnF1-6 (called full-length) (assay: nsRBNS (natural sequence RNA bind-n-seq); RBNS binding buffer (assumed for nsRBNS): 25 mM Tris pH 7.5, 150 mM KCl, 3 mM MgCl2, 0.01% Triton X-100, 500 ug/ml BSA, 20 U/ml SUPERase-In, 4 C; UNK is unkempt and MSI1 is Musashi-1; names of the RNAs are library labels; protein concentration not given here; high values mean tight binding).

Binder	binding signal [enrichment R]
B1	0.796
B2	0.641
B3	1.39
B4	0.713
B5	0.702
B6	0.576
B7	0.687
B8	0.719
B9	0.761
B10	0.396
B11	0.625
B12	0.802
B13	1.06
B14	0.949
B15	1.21
B16	0.513
B17	0.233
B18	0.831
B19	0.769
B20	1.03
B21	0.796
B22	0.714
